Reference: patent US20030082175A1 (Biogen, published 2003)

Molecular target: T1, FLAG-human APRIL (human, UniProt O75888 109-250)
T1 construct: Made from plasmid ps429 (p1448) in 293T cells; also called FLAG-hAPRIL; FLAG-h APRIL
T1 sequence: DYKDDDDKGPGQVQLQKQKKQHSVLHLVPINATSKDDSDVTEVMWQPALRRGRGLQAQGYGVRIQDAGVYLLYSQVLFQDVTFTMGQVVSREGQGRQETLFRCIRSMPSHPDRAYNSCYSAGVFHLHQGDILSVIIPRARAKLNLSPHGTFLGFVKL
Experiment: ELISA and immunoprecipitation (Example 2)
Method: ELISA analysis: Coated plates with receptor-Fc fusion proteins (hBCMA-Fc-739 or hTNFR2-Fc-492) at 1 ug/ml in carbonate pH 9.6, overnight, 4C. Blocked for 2 hours at room temperature using PBS/5% non fat dry milk/05% Tween-20. […] After incubation with ligands the plate was washed in PBS) 0.5% Tween-20 and probed with 0.5 ug/ml anti-FLAG mAb M2 in dilution buffer. The antibody was then detected using anti-mouse-PO 1/2000 with enzymatic development (OPD).
Immunoprecipitation experiments: 293T cells were transfected with indicated expression plasmid (Rec-Fc or flag ligand) in 9 cm plate. Transfected cells were left for 5d in 8 ml Optimem media (Gibco-BRL). Immunoprecipitation were performed by mixing 200 ul of each receptor-conditioned media with 200 ul of each ligand-conditioned media+400 ul PBS+10 ul ProtG-Sepharose. These were rotated 1 h on a wheel, washed 4× with 1 ml PBS, then boiled in 50 ul sample buffer (+DTT). 20 ul of each immunoprecipitation was loaded per lane. Reveal blotting was done with 1 ug/ml anti-FLAG M2 mAb (Sigma, St Louis Mo.) and anti-mouse PO (1/2000). A reprobe blot with anti-human-PO was also checked: 100 ul conditioned media was precipitated with MeOH/CHC13/lysozyme. This mix was boiled in 50 ul sample buffer (+DTT) and 20 ul was loaded. A Reveal blot was performed with anti-FLAG mAb M2 (1 ug/ml) and anti-mouse-PO (1/2000).

binding result: binds
B1: human BCMA-hIgG Fc fusion protein (human APRIL-R-hIgGFc, pJST538) (Fc fusion)
chain: DVTMLQMAGQCSQNEYFDSLLHACIPCQLRCSSNTPPLTCQRYCNASVTNSVKGV[human IgG1 Fc omitted]
notes: also called hBCMA-Fc; hBMCA-Fc
